The full ranking holds about 33,000 sequences; the median of “E-score (-0.5 to 0.5)” is about -0.021, and the highest 2% start at about 0.32. The list shows a part of the results.
The sequences below were run against T1, Zap1 (UniProt P47043) (assay: PBM E-score (8-mer binding enrichment) (E-score (-0.5 to 0.5)); higher = stronger / more preferred TF binding; most listed sequences are background and not binding sites). Settings: protein concentration: 200 nM; construct: GST-full length.
T1 sequence: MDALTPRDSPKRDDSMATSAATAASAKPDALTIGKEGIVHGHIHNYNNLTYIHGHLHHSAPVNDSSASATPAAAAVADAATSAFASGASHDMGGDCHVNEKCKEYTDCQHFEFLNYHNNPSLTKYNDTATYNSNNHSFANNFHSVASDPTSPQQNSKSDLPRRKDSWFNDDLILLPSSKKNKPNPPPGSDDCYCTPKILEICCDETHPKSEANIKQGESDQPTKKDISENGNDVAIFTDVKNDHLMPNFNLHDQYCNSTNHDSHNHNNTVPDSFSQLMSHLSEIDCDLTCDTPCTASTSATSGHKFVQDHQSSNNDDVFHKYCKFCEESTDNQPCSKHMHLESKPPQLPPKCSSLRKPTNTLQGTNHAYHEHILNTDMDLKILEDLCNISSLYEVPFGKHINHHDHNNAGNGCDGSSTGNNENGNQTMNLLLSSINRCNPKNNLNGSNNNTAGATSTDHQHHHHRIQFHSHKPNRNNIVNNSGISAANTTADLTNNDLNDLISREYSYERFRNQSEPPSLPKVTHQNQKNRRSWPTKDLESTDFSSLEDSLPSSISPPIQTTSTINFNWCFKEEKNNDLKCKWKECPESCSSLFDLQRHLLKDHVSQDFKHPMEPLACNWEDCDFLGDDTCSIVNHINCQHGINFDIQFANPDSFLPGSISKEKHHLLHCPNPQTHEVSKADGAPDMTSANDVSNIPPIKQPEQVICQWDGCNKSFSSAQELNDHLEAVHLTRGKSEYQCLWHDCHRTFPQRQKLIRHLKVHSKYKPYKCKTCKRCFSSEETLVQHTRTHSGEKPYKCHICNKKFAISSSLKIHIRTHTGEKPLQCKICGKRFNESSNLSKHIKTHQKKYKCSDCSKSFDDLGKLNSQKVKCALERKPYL
Summary of the method: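 Yeast transcription factors carrying a GST tag, as full-length proteins or DNA-binding domains, were produced by PURExpress in vitro transcription/translation. About 100-200 nM protein was applied to universal all-10-mer Agilent arrays, double-stranded by primer extension on fresh or once-stripped slides. Bound protein was detected with fluorescent anti-GST, and scans were normalised with masliner. The Universal PBM Analysis Suite gave each ungapped eight-base word, pooled with its reverse complement, an E-score, a modified Wilcoxon-Mann-Whitney statistic.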

Going from CTATAGCC to CGGTGCAC, the “PBM E-score” value rises from -0.288 to -0.235.

Going from ACTATTCA to CGGCACTC, the “PBM E-score” value falls from 0.181 to -0.15.

Going from AGAGCTAC to ATTCAGAA, the “PBM E-score” value rises from -0.184 to 0.181.

First: CCGAAGGA
Second: CACGATCC
The “PBM E-score” value of the first is lower: -0.06 for the first, 0.141 for the second.

First: GCACAAGC
Second: AGGGGCCC
The “PBM E-score” value of the first is lower: -0.0159 for the first, 0.0465 for the second.

Going from CTAATTAG to CTGTCCGC, the “PBM E-score” value falls from 0.245 to -0.116.

Going from TGATAGCA to ATGTAAAT, the “PBM E-score” value rises from -0.0114 to 0.0136.

Compared with AAATGATA, GACTTTCA is lower in “PBM E-score” value: 0.16 for the first, 0.101 for the second.

Going from GACAACCC to ATACACGG, the “PBM E-score” value falls from 0.35 to 0.0273.

Compared with AGCGGATG, ACAACCTA is higher in “PBM E-score” value: -0.127 for the first, 0.232 for the second.

Compared with ACATGGCC, TTGACCAA is higher in “PBM E-score” value: 0.0799 for the first, 0.23 for the second.

First: ATAAACTA
Second: ACGAGTCG
The “PBM E-score” value of the first is higher: 0.261 for the first, -0.0633 for the second.

First: CGAAGGAG
Second: CGTAACAA
The “PBM E-score” value of the first is lower: -0.186 for the first, 0.201 for the second.

Going from GAGAGACC to TACATCTA, the “PBM E-score” value falls from 0.145 to 0.0905.

Compared with ACTCGAAA, ACGTCCGC is lower in “PBM E-score” value: 0.0377 for the first, -0.0615 for the second.

First: ACAACCGT
Second: GTCTCTGA
The “PBM E-score” value of the first is higher: 0.0867 for the first, 0.0136 for the second.

Going from AATGTCAC to CGCTTTAA, the “PBM E-score” value falls from 0.0971 to -0.0207.

Compared with ATTCTGTC, ACATAGCT is higher in “PBM E-score” value: -0.145 for the first, -0.138 for the second.

Going from GTTGTCAA to GCTATTAA, the “PBM E-score” value rises from 0.0958 to 0.176.

First: AGAAAACC
Second: GGAATACC
The “PBM E-score” value of the first is higher: 0.192 for the first, 0.0178 for the second.

Going from CCCGGTCA to GCACATGA, the “PBM E-score” value falls from -0.0409 to -0.177.

Compared with TCACTTAA, ACCATTAG is higher in “PBM E-score” value: 0.164 for the first, 0.18 for the second.

First: GTAATACA
Second: ATATTGAC
The “PBM E-score” value of the first is higher: 0.0684 for the first, -0.0127 for the second.

Going from AAGCCCCT to CGACGTTA, the “PBM E-score” value rises from -0.151 to 0.114.

Going from ACTACGGC to CAAGCGGC, the “PBM E-score” value rises from -0.131 to -0.00088.

First: GACGCGGC
Second: CTCTTTAC
The “PBM E-score” value of the first is higher: -0.0345 for the first, -0.0955 for the second.

First: ACTTGACA
Second: TCAAGGAA
The “PBM E-score” value of the first is lower: -0.142 for the first, 0.0133 for the second.

Compared with TCCCGAAA, AATCGCCA is lower in “PBM E-score” value: 0.0471 for the first, -0.0758 for the second.

First: AGTGGTAT
Second: ACAAGTAT
The “PBM E-score” value of the first is higher: 0.151 for the first, -0.0701 for the second.

First: AAGAGTGC
Second: AATTTGGT
The “PBM E-score” value of the first is lower: -0.122 for the first, 0.26 for the second.

Going from ACCACCCA to ATGCTCCG, the “PBM E-score” value falls from 0.252 to -0.237.

Going from AGACTTAC to AATGGATG, the “PBM E-score” value rises from -0.165 to 0.0867.

Compared with ACAGGTAA, ACACAACA is lower in “PBM E-score” value: 0.209 for the first, 0.0276 for the second.

Going from AATGTTTC to GTTCTGGA, the “PBM E-score” value rises from -0.00763 to 0.0591.

Going from CTTCCCAA to GTGGGGGA, the “PBM E-score” value falls from -0.213 to -0.317.

Going from GATATAAC to ATCACCCG, the “PBM E-score” value falls from 0.207 to 0.166.

Going from CGATTGGC to CTCGTCCC, the “PBM E-score” value falls from -0.06 to -0.232.

First: CTCCAGCC
Second: ACCTTTCG
The “PBM E-score” value of the first is lower: -0.333 for the first, 0.292 for the second.

Compared with ATTATTTG, ACCCACGA is higher in “PBM E-score” value: 0.0556 for the first, 0.266 for the second.

Compared with GAGTCCGA, GCCTAAGA is lower in “PBM E-score” value: -0.0125 for the first, -0.119 for the second.

Going from GTGACTAA to GGCGAGTA, the “PBM E-score” value falls from 0.15 to -0.179.

First: GAGGCTGA
Second: ATATCTCA
The “PBM E-score” value of the first is lower: -0.0123 for the first, 0.0986 for the second.

Compared with TACGAGTA, CCGAGGTC is higher in “PBM E-score” value: 0.0779 for the first, 0.281 for the second.

First: AAGTAAGC
Second: TCTCCTCA
The “PBM E-score” value of the first is higher: 0.0576 for the first, -0.174 for the second.

Compared with GGAGTCTA, ATCCTTAA is higher in “PBM E-score” value: -0.125 for the first, 0.0254 for the second.

First: CGCGGACA
Second: CGTGTTTA
The “PBM E-score” value of the first is higher: 0.0596 for the first, 0.0147 for the second.

Compared with GCCAAGGA, AACGGGGA is higher in “PBM E-score” value: -0.339 for the first, -0.0385 for the second.

Going from CGCTTTAC to GCCTGCGA, the “PBM E-score” value falls from -0.0313 to -0.168.

Compared with GCAATTGA, AATGAACT is lower in “PBM E-score” value: 0.0395 for the first, -0.0589 for the second.

Going from TCATCCAA to GCGGGAGA, the “PBM E-score” value falls from -0.017 to -0.309.

Compared with CTGTTAGC, ACTAAATC is higher in “PBM E-score” value: -0.103 for the first, 0.0999 for the second.

Going from CAGTATAG to AAAGATGA, the “PBM E-score” value falls from 0.167 to -0.00594.

Going from CACACGGC to AAGATGAC, the “PBM E-score” value rises from -0.0901 to 0.0452.

Going from CAATCACC to GGAAGTGA, the “PBM E-score” value falls from 0.146 to 0.00846.

Compared with AGATTGAG, CAAAACGC is lower in “PBM E-score” value: 0.0784 for the first, 0.0726 for the second.

First: CGCGCGCC
Second: ATAAGTAC
The “PBM E-score” value of the first is lower: 0.1 for the first, 0.139 for the second.

Compared with ACAGAGGC, CCAAGGCG is lower in “PBM E-score” value: -0.223 for the first, -0.266 for the second.

Going from ATTAAGGG to CCGCAGAC, the “PBM E-score” value falls from 0.147 to -0.0797.

Going from CGTTTTTC to GACACCGC, the “PBM E-score” value falls from 0.0868 to -0.115.

Going from TGAGTGCA to AAGAAGGA, the “PBM E-score” value falls from -0.113 to -0.203.

First: AAGGATAT
Second: GAGTCAAC
The “PBM E-score” value of the first is higher: 0.041 for the first, -0.169 for the second.

Going from AATTAGGA to AACACCCG, the “PBM E-score” value rises from -0.0106 to 0.177.

Compared with AATTTTTA, ACACCGCA is higher in “PBM E-score” value: 0.153 for the first, 0.195 for the second.

First: CCCGCAAG
Second: GACACCTC
The “PBM E-score” value of the first is lower: -0.21 for the first, -0.0633 for the second.

First: CACTCTTA
Second: ACTCCAGA
The “PBM E-score” value of the first is higher: 0.0979 for the first, -0.174 for the second.

First: GCCCGGGC
Second: GCGTGTCA
The “PBM E-score” value of the first is lower: -0.136 for the first, 0.00317 for the second.

Compared with CTTGAAAC, AGAACGAT is lower in “PBM E-score” value: 0.158 for the first, 0.103 for the second.

Going from ACTAGTAG to CTTCGACA, the “PBM E-score” value falls from 0.0456 to 0.0154.

First: ATGCGCAC
Second: CGGAATAC
The “PBM E-score” value of the first is lower: -0.0707 for the first, 0.101 for the second.

First: ACACTCTA
Second: AGGAAGAG
The “PBM E-score” value of the first is higher: 0.0716 for the first, -0.103 for the second.

First: CATCCTAG
Second: ATCGTACA
The “PBM E-score” value of the first is lower: -0.154 for the first, -0.00473 for the second.

First: AGGTCTCA
Second: ACCCGTCT
The “PBM E-score” value of the first is higher: 0.16 for the first, -0.0166 for the second.

First: TCCTCACA
Second: TACTAAAA
The “PBM E-score” value of the first is lower: 0.0409 for the first, 0.22 for the second.

First: ACGGAGAG
Second: GAGAGTGA
The “PBM E-score” value of the first is lower: -0.181 for the first, -0.0772 for the second.

Compared with AAATGTCA, GGGAAACA is higher in “PBM E-score” value: -0.105 for the first, 0.0145 for the second.

Going from CCGAACGA to AGCCCGCG, the “PBM E-score” value falls from -0.0693 to -0.108.

Compared with AATGTATG, ATTTTTTA is higher in “PBM E-score” value: 0.0128 for the first, 0.192 for the second.

Compared with GATCGCCA, TGTCGGAA is higher in “PBM E-score” value: -0.194 for the first, -0.0861 for the second.

Compared with CATCCATG, GACCGGAA is higher in “PBM E-score” value: -0.0427 for the first, -0.04 for the second.

Going from CAAACGAC to AAAGCGTG, the “PBM E-score” value falls from 0.116 to -0.104.

First: AGGGCGAA
Second: CCAGCCCA
The “PBM E-score” value of the first is higher: -0.094 for the first, -0.153 for the second.

Going from CCTGAGGC to CCACACGC, the “PBM E-score” value rises from -0.253 to -0.0746.

First: GACCACGC
Second: TCTCGCCA
The “PBM E-score” value of the first is higher: -0.00263 for the first, -0.206 for the second.

First: ACCTGGTC
Second: CGTGCTAC
The “PBM E-score” value of the first is higher: 0.107 for the first, -0.181 for the second.

First: CAAGTAAA
Second: CGTTGTTC
The “PBM E-score” value of the first is higher: -0.0381 for the first, -0.0987 for the second.

First: CTGGTAGA
Second: CGGGGTAA
The “PBM E-score” value of the first is lower: 0.208 for the first, 0.299 for the second.

Source: the supplement of paper PMC3334620
